# Test results as given in the supplement of paper PMC11417369.
# ± gives the standard deviation of the averaged measurements. Some of the results follow.
# Test system: PfAP2-EXP AP2 domain (GST-tagged)
# Assay: gcPBM binding intensity (ln(normalized median fluorescence intensity)); higher = stronger DNA binding
# How it was run: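 Binding intensity values are the highest Masliner-normalised natural-log median intensity among replicate spots of either probe orientation. The binding step lasted 1 h in 1× PBS with 1% milk, 0.2 mg/ml BSA, 0.5% salmon testes DNA and 0.03% Triton X-100, using GST-tagged P. falciparum DNA-binding domains expressed in E. coli on an Agilent 4 × 180k array of primer-extended double-stranded 36-bp intergenic genomic probes plus negative controls. Alexa488 anti-GST antibody and a 488 nm scan detected bound protein.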
row,Sequence,gcPBM binding intensity (ln)
1,AATTTGAATATTTGATGTACAAAGTTTTTTAATGTT [XGTACX_site3249],8.24 ± 0.25
2,TACCCACTAAAATACACACACACACCCACATATATA [CACACA_site6141],8.74 ± 0.63
3,TCTTACACTAATAAATGTACATACAAAAAATCTATT [XGTACX_site1379],8.52 ± 0.35
4,ATAAATATAACATATTGTACCCTTAAAAAGGAACAA [XGTACX_site352],8.19 ± 0.11
5,AAATGTATAATTTTTTAATACACTTATTTAAAATAA [CACACA_negctrl_site797],8.05 ± 0.31
6,GAGAGGATAGTTCACAGTACCCAGTAACTCTACGGA [XGTACX_site4876],8.56 ± 0.49
7,GTACCAACAGCACTACTTCTCGCCATTTTCTTGTAG [XGTACX_negctrl_site97],9.15 ± 0.42
8,CTCAAATAACTTTTTACACACATTATTTGAAATAAG [CACACA_site6722],8.53 ± 0.41
9,CAGAATACATACATTACACACAAATTTAAGTATATA [CACACA_site1781],8.31 ± 0.51
10,ATATGAATGATCGTACGTACTTACATATTTATAAAG [XGTACX_site8041],8.6 ± 0.41
11,TATGAGAACAAACATTGTACAATAAAAAGTAGATAT [XGTACX_site920],9.34 ± 0.33
12,ACAAATAAAAAAATTACACACATATAAAATATAGAT [CACACA_site6756],8.43 ± 0.41
13,AATACATGAACTTAAAGTACTAAAAAAAAAATAATA [XGTACX_site1956],8.69 ± 0.38
14,AGGAAAATAATTAAAGCATGCTCATTATGAAATATA [TGCATGCA_site855],8.72 ± 0.42
15,AACCCTTTTGATTTTTCTTTTTTTTTTTTTTTAAAT [CACACA_negctrl_site1667],8.32 ± 0.59
16,CATATAAGACAAAAGGTGCAATTTTAATGCTTTTAT [GTGCAC_site9432],8.56 ± 0.24
17,TAGTAAAATGGAACACGTACATATATCTATGTATAA [XGTACX_site6103],8.62 ± 0.43
18,ACAGTTTGTCTGAGTAGTACATAAATACTTGAAAGG [XGTACX_site7792],8.62 ± 0.31
19,AGAAGGATATTATGAAGTACACATATTGTATATGGT [XGTACX_site7503],8.47 ± 0.35
20,CCATATATAATGACATGTACTCAAAAAAAAAAAAAA [XGTACX_site685],8.41 ± 0.44
21,TTTCAAGGATTTAATTTATGGAAACCTTCTTCATTT [GTGCAC_negctrl_site504],8.35 ± 0.42
22,TAATTCAAACGTGTATGTATATTACTCGAAGAAATA [CACACA_negctrl_site1779],8.29 ± 0.36
23,ATACATATATATATATGTACATATATTTATATTTAT [XGTACX_site3155],8.39 ± 0.36
24,TTTCTCTTTTTTTGGGGTACAACCAATCCTATAATA [XGTACX_site297],8.82 ± 0.43
